Reference: the supplement of paper PMC3334620
The full ranking holds about 33,000 sequences; the median of “E-score (-0.5 to 0.5)” is about -0.054, and the highest 2% start at about 0.35. The list shows a part of the results.

These sequences were tested against T1, Stb5 (UniProt P38699) (assay: PBM E-score (8-mer binding enrichment) (E-score (-0.5 to 0.5)); higher = stronger / more preferred TF binding; most listed sequences are background and not binding sites). Details: protein concentration: 200 nM; construct: GST-full length.
T1 sequence: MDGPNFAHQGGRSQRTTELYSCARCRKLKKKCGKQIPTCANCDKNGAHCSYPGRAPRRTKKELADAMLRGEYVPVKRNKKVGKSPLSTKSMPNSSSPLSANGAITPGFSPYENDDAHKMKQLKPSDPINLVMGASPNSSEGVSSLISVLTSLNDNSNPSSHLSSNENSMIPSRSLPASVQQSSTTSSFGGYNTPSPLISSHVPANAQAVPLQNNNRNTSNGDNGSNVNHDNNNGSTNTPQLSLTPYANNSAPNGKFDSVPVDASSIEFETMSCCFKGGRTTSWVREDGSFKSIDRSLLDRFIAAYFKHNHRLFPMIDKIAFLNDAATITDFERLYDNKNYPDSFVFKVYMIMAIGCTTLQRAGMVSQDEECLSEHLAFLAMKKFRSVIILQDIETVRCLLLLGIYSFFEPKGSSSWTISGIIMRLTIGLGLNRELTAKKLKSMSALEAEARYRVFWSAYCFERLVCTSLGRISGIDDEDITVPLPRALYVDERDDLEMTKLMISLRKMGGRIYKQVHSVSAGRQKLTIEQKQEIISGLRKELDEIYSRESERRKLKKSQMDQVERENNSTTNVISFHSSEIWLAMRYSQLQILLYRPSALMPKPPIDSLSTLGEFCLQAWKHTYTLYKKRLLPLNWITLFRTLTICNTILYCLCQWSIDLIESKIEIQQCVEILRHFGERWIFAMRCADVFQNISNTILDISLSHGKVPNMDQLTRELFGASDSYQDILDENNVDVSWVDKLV
Procedure, shortened: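 Yeast transcription factors, full-length or as DNA-binding domains, were expressed with a GST tag using PURExpress in vitro transcription/translation. At about 100-200 nM they were applied to universal all-10-mer Agilent arrays, double-stranded by primer extension on fresh or once-stripped slides. Fluorescent anti-GST detected bound protein, and masliner normalised the scans. E-scores for ungapped eight-base words, pooled with reverse complements, came from the Universal PBM Analysis Suite.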

Sequence | PBM E-score
ACGAACGT | -0.105
CGGAAACA | 0.216
GAAGTCTC | -0.255
AACAGTGT | -0.312
AGCCACAT | -0.396
CGCGACAA | 0.019
CCCATTTA | -0.0583
CACAAGCC | -0.146
CGACGATC | -0.058
ACGTCACT | -0.111
GATTTGGC | -0.187
CTCACTTC | -0.136
ATGCCCGA | 0.248
AGCATAGA | -0.0257
TAATATTA | 0.113
ATCGCAAT | -0.0999
CCTCTCGC | -0.241
CGGCGCAA | 0.263
CCACATAA | 0.115
ATATTAAG | -0.0435
GCAACGCC | 0.0389
AAATGACC | 0.141
AAAACTTT | 0.0714
CACTGGTC | -0.166
AACGGCCA | 0.083

Sequence | PBM E-score
GCGTCAAA | 0.0482
CGGTTACC | 0.157
ACACGCGT | -0.259
AGTTGCTC | -0.181
CGAAACGC | 0.099
GAATGCCA | -0.194
AGTAGCGG | 0.324
ATCCTTTC | -0.195
GGCCTAAA | 0.116
GACGTCGA | -0.173
ACTGTCGA | -0.276
ACCAGTGG | -0.224
ACAGACAG | -0.0684
GGCGGGGA | 0.366
ACAGTGGT | -0.291
CCGATCTA | 0.237
CTACCTGC | -0.0261
CACGACCA | -0.246
ATCCGAGA | 0.0535
AGGTATAG | -0.135
AGCCATCC | -0.141
CTGAACAC | -0.107
GCGTAGGA | 0.159
CACAGCCA | -0.152
AGCTGGGA | -0.161

Sequence | PBM E-score
CGCCCAGC | -0.0456
GAGTACCC | -0.0947
AGGCCGTC | 0.301
CATGCCTA | -0.161
CCCTCGCC | -0.25
TTGCCAAA | 0.015
TACAAACA | -0.00132
AACCCTGA | 0.0249
CCGGCACC | 0.278
CACGCGCG | -0.0121
CTTATGCC | 0.0514
GCAAGGGC | -0.149
AACGCCAG | -0.0687
ATCGATTG | -0.164
CATCCCGG | 0.134
ACCTGTAG | -0.105
ACAAGAAG | -0.047
ATAAGAGG | -0.0468
GTGGCAGA | -0.223
ATGTGCCG | 0.2
CCGCTTAC | 0.146
GAACATGA | -0.0676
CGAAATTA | -0.0454
ATTGATCC | 0.215
TAACGTTA | 0.142

Sequence | PBM E-score
TCGCGCGA | -0.101
AGAACTAG | -0.23
CGAATACC | 0.0579
AGATCCAA | -0.171
CAAGTGCG | 0.0372
GGGTCGAA | -0.0152
ATACCGGA | 0.322
CGCAGAAG | -0.12
AGATCTCC | -0.0161
AGGCCGGG | 0.298
CTATCGCA | 0.117
GCCTTGTA | -0.0365
CCCAATCA | -0.236
CGTAGGTA | 0.0752
ATGTGACA | -0.162
ACGACTGC | -0.266
AAACTCAC | -0.172
ATAGATTG | -0.0206
CGCCAAAG | 0.118
GAGCCACA | -0.128
CTGTGCTA | -0.192
ATCCGACC | 0.262
ATCAGTAG | -0.249
AGGTAAAG | 0.0312
AATTACTG | -0.159

Sequence | PBM E-score
ACTGCGCA | -0.0257
CATGGACC | -0.00439
ACAGTTGA | 0.0147
ACCCCATC | 0.13
CCCATAAC | 0.0259
AGTTTATA | 0.229
ATGGCGTC | 0.0211
AAACGTGC | -0.208
CGAATTAA | -0.0809
AGCTTCCG | -0.0198
CCATGTCG | -0.0505
CCGGACCA | 0.229
ACAAGCCC | 0.0337
ACTTGCGA | -0.0582
AAGTATAT | 0.0333
GCCACCGA | 0.139
AGACCGAC | 0.385
ACGTTATC | -0.021
AGCACTGA | -0.184
AACAGCCT | -0.264
ATCCTGAC | -0.216
CCCAGGGA | -0.269
TGGAGTAA | -0.0739
CGAAATCC | 0.077
CGCTAACA | 0.139

Sequence | PBM E-score
ACATATGC | -0.0869
CGAGTATA | -0.113
TCTTGCAA | -0.0179
ATATTTTA | 0.0467
GTTGCGCA | -0.0873
TGTCCAAA | -0.0683
AAGACCTT | -0.073
GTGTCCGA | 0.231
ATTCCGTC | 0.141
CACCGGGC | 0.375
AACCCACT | -0.00366
GGGGGTGA | -0.123
AGGAGGAT | -0.271
AAGCCTAC | -0.298
GCTTGTCC | -0.0942
ACCAGCCT | -0.152
CCAGCGAG | -0.174
CCCGCTTC | 0.19
ATCAATTC | -0.0784
GTTAAAAA | 0.00418
CTTGGAAA | -0.134
ACAGGCAT | -0.218
AGGATCGA | -0.00784
AGCCGGAG | 0.279
CCTGAACC | -0.333

Sequence | PBM E-score
GTATACAC | 0.147
CCATGTCA | -0.116
GGCAGCCC | -0.0306
GAAGGCAC | -0.0547
AGCAAGCG | -0.028
CCTTGGAC | -0.138
GGGGACAC | -0.00426
CTTAGTGC | -0.0671
AGACTCGG | -0.0398
ACTCCTAC | -0.068
GCATAAGC | 0.0731
CTGCCCAC | -0.256
ATACCAAG | 0.0722
ACCACTCT | -0.243
ACGTCGAC | -0.0741
CAACATTA | -0.0568
TGCGAGAA | -0.253
CCTACTAA | -0.0938
CGAGCCCG | 0.0887
ACTTATCG | 0.0822
CCGGTTCC | 0.222
CCGTGGAA | 0.215
